According to PubChem BioAssay AID651820 (National Center for Advancing Translational Sciences (NCATS), 2012):
Where “and” joins values, the source holds several entries; their conditions need not be identical. Identical values can stand only once. The campaign covered roughly 340,000 compounds. About 12,000 (3.5%) were called active. Inconclusive means that the source gave no clear call. Such entries were picked first, then a sample of the others. Calls come from the whole dose curve; as a rule, active = well fitted inhibition curve with a large enough effect; inconclusive = small, poorly fitted or top-dose-only effect, or another doubt; inactive = no such curve, though single readings can be large or run the other way. Where the call is inconclusive, the potency comes from a doubtful curve fit.

Assay: qHTS Assay for Inhibitors of Hepatitis C Virus (HCV)
Conditions: Huh7.5.1 HCVcc-Cre (HCVcc is cell-culture hepatitis C virus) infection, luciferase reporter, 44 h; activity change, negative = inhibition: at 41.8 µM (top of the series)
Procedure, shortened: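 1,000 cells/well; 4 h culture; + compound; + HCVcc-Cre (~0.5 moi); 44 h; luciferase substrate, RT 15 min; read 15 sec.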
% is set by controls: 0 for no effect and ±100 for the full control effect; potency is the fitted concentration of half-maximal effect; tags give direction and shape of the fitted curve.

Row | SMILES | activity change, negative = inhibition | Potency
1 | CC(C)[C@@H]1NC(=O)c2cc([N+](=O)[O-])cc(I)c2NCC[C@@H](C(N)=O)NC(=O)[C@H](CO)NC1=O | inactive: 1.62% [at 8.37 µM] | 
2 | CCOc1ccc(/C=N/NC(=S)NC2CC3CC2C2C=CCC32)cc1 (stereo not drawn) |  | inactive
3 | CCc1nc2ccc(C(=O)N(C)CC(=O)Nc3ccc(F)c(F)c3F)cc2nc1CC |  | inconclusive: 5.01 µM [inhibitor, full curve, poor fit]
4 | CCOC(=O)c1cc(-c2ccccc2)nn1CC1CC(c2ccc(OC)cc2)=NO1 (stereo not drawn) |  | inconclusive: 4.47 µM [inhibitor, single point]
5 | COc1cccc(C(=O)Nc2ccc3ccccc3c2)c1 |  | inconclusive: 31.6 µM [inhibitor, single point]
6 | COCCCNC(=O)Cn1cnc2c(OCc3ccccc3)ncnc21 |  | inactive
7 | CC(=O)Nc1ccc(S(=O)(=O)N2CCN(C(=O)c3ncoc3-c3cccc(F)c3)CC2)cc1 |  | inconclusive: 2.82 µM [inhibitor, single point]
8 | CC(Oc1ccc(F)cc1)C(=O)Nc1nc(-c2ccccn2)cs1 (stereo not drawn) |  | active: 8.91 µM
9 | C[C@]12c3[nH]c4cc(-c5ccco5)ccc4c3CCN1C(=O)[C@@H](CC(=O)NCCC1=CCCCC1)C[C@@H]2C(=O)N1CCCCC1 |  | inconclusive: 20 µM [inhibitor, partial curve]
10 | COc1ccc2c3c([nH]c2c1)C1CC2C(CC(O)C(OC)C2CO)CN1CC3 (stereo not drawn) |  | inactive
11 | Cc1cc(C)c(C(=O)CN2C(=O)C(=O)N(C3CCCC3)C2=O)cc1C |  | inactive
12 | Nc1ccc2oc(-c3ccccc3Cl)cc(=O)c2c1O |  | inconclusive: 8.91 µM [inhibitor, partial curve]
13 | Cc1cc(C)c(S(=O)(=O)NCCC2CCCN2C)c(C)c1 (stereo not drawn) |  | inconclusive: 10 µM [inhibitor, single point]
14 | Cc1cccc(C2c3[nH]c4ccccc4c3CCN2C(=O)c2noc3c2CCCC3)n1 (stereo not drawn) |  | inconclusive: 31.6 µM [inhibitor, single point]
15 | C=CCN=C1S/C(=C\N(C)C)C(=O)N1S(=O)(=O)c1ccc(C)cc1 |  | inactive
16 | COc1ccc(C(=O)Nc2cc(-c3ccc(C)cc3)no2)cc1 |  | inactive
17 | COc1ccccc1-c1nnc(NC(=O)c2ccc(S(=O)(=O)N3CCCC3)cc2)o1 |  | inconclusive: 11.2 µM [inhibitor, single point]
18 | CCOc1ccc(CCNC(=O)CS(=O)(=O)Cc2nc(-c3ccccc3F)oc2C)cc1 |  | active: 10 µM
19 | CC(NC(=S)NCCc1ccccc1)C(c1cccs1)N1CCN(C)CC1 (stereo not drawn) |  | inconclusive: 5.01 µM [inhibitor, single point]
20 | O=C(COC(=O)CCC(=O)c1cccs1)NCCc1ccccc1 |  | inactive
21 | CCOC(=O)c1[nH]c(C)c(C(=O)c2cc(F)ccc2F)c1C |  | inconclusive: 10 µM [inhibitor, partial curve]
22 | C[C@H](CO)N1C[C@H](C)[C@H](CN(C)S(=O)(=O)c2cn(C)cn2)Oc2ccc(NC(=O)Nc3ccc(C(F)(F)F)cc3)cc2CC1=O |  | inactive
23 | CCOCCN1CCN(c2c(C)c(C)nc3cc(-c4cc(OC)cc(OC)c4)nn23)CC1 |  | inconclusive: 31.6 µM [inhibitor, single point]

Row | SMILES | activity change, negative = inhibition | Potency
24 | COc1ccc(-c2nc3cccc(C)n3c2NCC2CCCO2)cc1O (stereo not drawn) |  | inconclusive: 31.6 µM [inhibitor, single point]
25 | Nc1nc(Nc2ccccc2)nc2c1ncn2[C@@H]1O[C@H](CO)[C@@H](O)[C@H]1O |  | active: 2 µM
26 | CC(C)(C)OC(=O)NCCc1nnc(SCc2ccc(Cl)cc2)o1 |  | inconclusive: 15.8 µM [inhibitor, single point]
27 | CC(NS(=O)(=O)c1ccccc1)C(c1cccs1)N1CCN(c2ccccc2)CC1 (stereo not drawn) |  | inactive
28 | O=C(NCC1CC1)c1onc(CSc2ccc(F)cc2)c1C(=O)NCC1CC1 |  | inconclusive: 11.2 µM [inhibitor, partial curve]
29 | CCCNC1=C(N(C(C)=O)c2cccc(F)c2)C(=O)c2ccccc2C1=O |  | active: 7.94 µM
30 | CC[n+]1c(-c2ccccc2)csc1Nc1c(C)n(C)n(-c2ccccc2)c1=O |  | inconclusive: 11.2 µM [inhibitor, partial curve]
31 | CC1CCc2sc(C(=O)Nc3ccc(N4CCOCC4)cc3)cc2C1 (stereo not drawn) |  | inconclusive: 12.6 µM [inhibitor, partial curve]
32 | COCC(C)n1c(C)cc(C(=O)COC(=O)c2ccc3c(c2)NC(=O)CS3)c1C (stereo not drawn) |  | inconclusive: 35.5 µM [inhibitor, single point]
33 | Cn1cnc2c1c(=O)n(Cc1cccc(Cl)c1)c(=O)n2C |  | inactive
34 | Cc1c(C(=O)NCC(C)C)sc2nc(-c3ccc(F)cc3)cn12 |  | inconclusive: 10 µM [inhibitor, partial curve]
35 | CC(=O)Nc1ccc(S(=O)(=O)NC2=C(N3CCN(Cc4ccccc4)CC3)C(=O)c3ccccc3C2=O)cc1 |  | inactive and inconclusive: 17.8 µM [inhibitor, partial curve, poor fit]
36 | CCCCNC(=O)Cn1nc(Cc2ccncc2)c2ccccc2c1=O |  | inactive
37 | O=C(CCl)Nc1cc(S(=O)(=O)N2CCCCCC2)ccc1Cl |  | active: 35.5 µM
38 | COc1ccc(-c2c(C)nc(N)nc2-c2ccc(OCc3ccc(C)cc3)cc2O)cc1OC |  | inconclusive: 8.91 µM [inhibitor, partial curve]
39 | CC(C)(C)OC(=O)N1CCC[C@H]1c1nnc(SCc2ccccc2F)o1 |  | inactive
40 | COCC(=O)Nc1nc2ccc(S(C)(=O)=O)cc2s1 |  | inactive
41 | CCOc1ccc(C(=O)Nc2cc(C)on2)cc1 |  | inactive
42 | CC(C)Cn1c2c(c(O)c(C(=O)Nc3nc4ccccc4s3)c1=O)CCCC2 |  | inconclusive: 5.62 µM [inhibitor, single point]
43 | CN(C)CC1CCCCC1OC(=O)c1ccc(Br)cc1 (stereo not drawn) |  | inconclusive: 10 µM [inhibitor, partial curve]
44 | COC(=O)C1=C(c2ccc(F)cc2OCc2ccccc2)C[C@@H]2CC[C@H]1N2C(=O)NCc1ccco1 |  | inconclusive: 31.6 µM [inhibitor, single point]
45 | Cc1ccc(-n2nc(-c3ccco3)cc2C(=O)NCc2cccnc2)cc1 |  | inconclusive: 31.6 µM [inhibitor, single point]
46 | COc1ccc(S(=O)(=O)N2CCCC(C(=O)Nc3cccc(C(C)=O)c3)C2)cc1 (stereo not drawn) |  | inconclusive: 28.2 µM [inhibitor, single point]

Row | SMILES | activity change, negative = inhibition | Potency
47 | COc1cccc(/C=N/NC(=O)CCc2c(C)n[nH]c2C)c1 |  | inconclusive: 2 µM [inhibitor, single point]
48 | N#Cc1c(C(F)(F)F)cc(-c2cccs2)nc1N1CCCCC1 |  | inconclusive: 14.1 µM [inhibitor, partial curve]
49 | COc1ccc(CN(C)C(=O)Cn2ccc(NC(=O)OCc3ccccc3)nc2=O)cc1OC |  | inconclusive: 2.51 µM [inhibitor, full curve]
50 | c1ccc2c(c1)CCN(c1ncnc3nc[nH]c13)C2 |  | inactive
51 | Cc1cccc(-n2c(C)cc(/C=C3\NC(=O)NC3=O)c2C)c1 | inconclusive: -30.1% [inhibitor] | 
52 | CSc1ccc(-c2c(C#N)c(N)nc3c2c(C)nn3-c2ccccc2)cc1 |  | inconclusive: 7.08 µM [inhibitor, partial curve]
53 | Cc1nn(-c2cc(C)c3ccccc3n2)c2c1CCC2 |  | inconclusive: 31.6 µM [inhibitor, single point]
54 | O=C(Nc1cccnc1)c1c(O)c2c(n(Cc3ccccc3)c1=O)CCCC2 |  | inconclusive: 11.2 µM [inhibitor, single point]
55 | Cc1ccc(C)c(C(=O)C(C)OC(=O)CN2C(=O)NC3(CC(C)CC(C)(C)C3)C2=O)c1 (stereo not drawn) |  | inactive
56 | COc1ccc(-c2nc(NC(=O)c3n[nH]c(=O)c4ccccc34)sc2C)cc1 |  | inconclusive: 31.6 µM [inhibitor, single point]
57 | Cc1[nH]c2ccc(-c3nnc(SCC(=O)N4CCCc5ccccc54)o3)cc2c1C |  | inconclusive: 5.62 µM [inhibitor, single point]
58 | CCC(CO)Oc1cc(NC(=O)c2ccc(F)cc2)c2ncn(C(C)C)c2c1 (stereo not drawn) |  | inconclusive: 8.91 µM [inhibitor, partial curve]
59 | N#CCCN1CCN(C(=S)c2ccc(-c3ccc(Cl)cc3)o2)CC1 |  | inconclusive: 11.2 µM [inhibitor, single point]
60 | O=C(Nc1ccccc1)c1ccc(NCc2cccnc2)c(S(=O)(=O)N2CCOCC2)c1 |  | inconclusive: 31.6 µM [inhibitor, single point]
61 | Cc1ccc(-c2ccccc2NC(=O)CCl)o1 |  | inactive
62 | CCOC(=O)C1=C(C)NC(=O)N(C(C)=O)C1c1ccc(Cl)cc1 (stereo not drawn) |  | inconclusive: 0.501 µM [inhibitor, full curve, poor fit]
63 | O=[N+]([O-])c1ccc(Cl)cc1Sc1nc2ccccc2o1 |  | inconclusive: 31.6 µM [inhibitor, single point]
64 | CC(=O)N(CCCN(C)C)c1nc2ccc(C)cc2s1 |  | inconclusive: 3.55 µM [inhibitor, partial curve]
65 | COc1ccc(OC)c(N=Cc2c(O)c3ccccc3oc2=O)c1 |  | inactive
66 | COc1cccc2c1C1COC3C4CC(C(=O)O)C(C(C2)N13)N4C (stereo not drawn) |  | inconclusive: 31.6 µM [inhibitor, single point]
67 | COc1ccc(Cn2c(SCc3ccc(C)cc3)nc3cc(OC)c(OC)cc3c2=N)cc1Cl |  | inconclusive: 5.62 µM [inhibitor, single point]
68 | CC(C)CCSc1nc(N)c(C#N)cc1C#N |  | inconclusive: 3.98 µM [inhibitor, full curve]
